Source: US20240216556A1 (UNIVERSITY OF TENNESSEE RESEARCH FOUNDATION, published 2024)

Legend:
[1] = biological target: T1, human ATTRwt amyloid extract (125) (human, UniProt P02766); assay: plate binding to amyloid substrate, anti-human Fc and streptavidin-europium, time-resolved fluorescence
[2] = biological target: T2, human ALλ amyloid extract (SHI) (human); assay: as above
T2 construct: Tissue extract of amyloid, not a pure protein; also called ALλ (SHI); ALA

[3] = biological target: T3, human ALκ amyloid extract (TAL) (human); assay: as above
T3 construct: Tissue extract of amyloid, not a pure protein; also called ALκ (TAL); ALK

[4] = biological target: T4, rVλ6Wil fibrils (synthetic amyloid-like fibrils of the recombinant λ6 variable domain protein Wil); assay: as above
T4 construct: domain: λ6 variable domain; Fibrillar aggregate; pHrodo red-labelled in the phagocytosis assays; also called rVλWIL; synthetic fibrils

[5] = biological target: T5, human ATTRv amyloid extract (KEN) (human); assay: as above
T5 construct: Tissue extract of amyloid, not a pure protein; also called ATTRv (KEN); KEN hATTR extract

[6] = biological target: T1, human ATTRwt amyloid extract (125); assay: cell-based or functional assay
[7] = biological target: T2, human ALλ amyloid extract (SHI); assay: cell-based or functional assay
[8] = biological target: T3, human ALκ amyloid extract (TAL); assay: cell-based or functional assay

EC50 [1]: 0.7 nM | EC50 [2]: 1.7 nM | EC50 [3]: 0.53 nM | EC50 [4]: 0.5 nM | EC50 [5]: 1.8 nM | ex vivo phagocytosis of pHrodo red-labeled amyloid by PMA-activated THP-1 macrophages; concentration at which the effect saturates [6]: ~60 nM | ex vivo phagocytosis of pHrodo red-labeled amyloid by PMA-activated THP-1 macrophages; concentration at which the effect saturates [7]: ~60 nM | ex vivo phagocytosis of pHrodo red-labeled amyloid by PMA-activated THP-1 macrophages; concentration at which the effect saturates [8]: ~60 nM
B1: Fcp5R CV1 (p5R peptide fused to the C-terminus of human IgG1 Fc via the short, rigid spacer VSPSV) (Fc fusion)
chain: APGGGSVS[… human IgG1 Fc …]VSPSVRAQRAQARQARQAQRAQRAQARQARQ
notes: Dimer of two identical Fc-spacer-p5R chains, made in CHO cells; biotinylated for the staining of tissue sections; also called hFc1CV1; Fc1CV1
